Experimental data taken from article PMC4336329 (PLoS ONE, 2015).
About 14,000 (4.5%) of roughly 310,000 compounds showed an effect of 50% or more. The effect is printed as a negative number. Some of the results follow.

molecular target: human ether-à-go-go-related gene (hERG) potassium channel (human, UniProt Q12809); experiment: primary screen, population patch clamp on CHO cells stably expressing hERG
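Also: peak tail current of the secondary pulse compared with the same well before compound.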

Sequence of human ether-à-go-go-related gene (hERG) potassium channel (Q12809 whole entry, looked up): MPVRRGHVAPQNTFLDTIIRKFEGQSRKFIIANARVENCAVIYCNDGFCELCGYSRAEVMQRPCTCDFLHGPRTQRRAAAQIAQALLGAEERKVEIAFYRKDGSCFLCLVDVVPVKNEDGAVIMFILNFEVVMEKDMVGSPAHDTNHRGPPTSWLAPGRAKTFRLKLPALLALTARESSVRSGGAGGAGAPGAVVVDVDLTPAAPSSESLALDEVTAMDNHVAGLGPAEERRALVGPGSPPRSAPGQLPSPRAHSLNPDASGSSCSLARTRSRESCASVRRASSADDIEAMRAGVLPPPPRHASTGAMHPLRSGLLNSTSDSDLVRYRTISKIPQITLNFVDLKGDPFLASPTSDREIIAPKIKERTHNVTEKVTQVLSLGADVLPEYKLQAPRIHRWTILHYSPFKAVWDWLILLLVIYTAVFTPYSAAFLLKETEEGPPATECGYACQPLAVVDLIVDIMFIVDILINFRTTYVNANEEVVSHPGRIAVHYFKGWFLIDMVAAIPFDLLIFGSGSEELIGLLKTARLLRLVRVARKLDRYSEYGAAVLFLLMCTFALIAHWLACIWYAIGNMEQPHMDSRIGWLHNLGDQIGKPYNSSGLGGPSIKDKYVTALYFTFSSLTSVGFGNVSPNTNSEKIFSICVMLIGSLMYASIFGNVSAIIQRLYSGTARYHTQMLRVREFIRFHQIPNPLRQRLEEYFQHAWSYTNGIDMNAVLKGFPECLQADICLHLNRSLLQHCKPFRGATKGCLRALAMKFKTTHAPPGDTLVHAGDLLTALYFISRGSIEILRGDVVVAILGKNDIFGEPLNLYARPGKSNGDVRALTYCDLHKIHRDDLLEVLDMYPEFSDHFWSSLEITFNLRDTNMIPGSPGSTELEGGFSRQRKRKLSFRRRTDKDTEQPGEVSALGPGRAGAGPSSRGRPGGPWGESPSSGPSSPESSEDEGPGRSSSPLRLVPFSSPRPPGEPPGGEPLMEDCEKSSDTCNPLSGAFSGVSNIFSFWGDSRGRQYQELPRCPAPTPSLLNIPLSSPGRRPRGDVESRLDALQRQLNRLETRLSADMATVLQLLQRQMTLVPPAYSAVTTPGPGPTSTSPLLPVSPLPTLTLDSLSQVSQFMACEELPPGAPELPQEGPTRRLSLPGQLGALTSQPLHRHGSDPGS

Row | Compound | hERG current change (%, negative = inhibition) at 10uM
1 | CC(C)C(=O)Nc1nnc(SCC(=O)NCC2CCCO2)s1 (centres unmarked) | 0.5%
2 | O=C(CNC(=S)N(Cc1ccccc1)Cc1cccnc1)NC1CC1 | -11.4%
3 | O=C(Nc1nc(N2C(=O)c3ccccc3C2=O)n(-c2ccccc2)n1)c1ccc(Cl)cc1 | -7.9%
4 | O=C(Oc1c(Cl)cc(Cl)c2ccccc12)N1CCCCC1 | 7.5%
5 | COc1cc(/C=N/Nc2nc3ccccc3o2)cc(OC)c1O | -6.58%
6 | CCOC(=O)N1CCN(C(=O)C2CC(=O)N(c3ccccc3)C2)CC1 (centres unmarked) | 5.31%
7 | COc1ccc(NS(=O)(=O)c2ccc(N3CCOCC3)c(NC(=O)c3cccc(F)c3)c2)cc1 | -17.9%
8 | CC(NC(=O)c1ccco1)c1cccc2ccccc12 (centres unmarked) | -13.5%
9 | CC(C)OC(=O)NCN1C(=O)C2C3C=CC(C3)C2C1=O (centres unmarked) | -0.869%
10 | Cn1c(=O)c(C(=O)CSc2ccccc2)c(N)n(Cc2ccccc2)c1=O | 20.5%
11 | CC1CCN(S(=O)(=O)c2cccc(C(=O)N(C)C3CCS(=O)(=O)C3)c2)CC1 (centres unmarked) | 11.7%
12 | COc1ccc(OC)c(CNc2ccc(F)c(Cl)c2)c1 | 2.7%
13 | COc1ccc(CCn2c(-c3ccc(OC)cc3)nc3c(c(=O)c4ccccc4n3C)c2=O)cc1 | 11.4%
14 | CC(C)CC(NC(N)=O)C(=O)OCC(=O)Nc1ccc(OC(F)F)cc1 (centres unmarked) | -12.2%
15 | COc1ccccc1NC(=O)c1c(C)oc2c1CCCC2 | 4.78%
16 | NC(=O)Cn1nnc(-c2ccc(NC(=O)c3ccc(F)cc3)cc2)n1 | -1.95%
17 | Cc1ccc(NC(=O)CSc2n[nH]c(C)c2[N+](=O)[O-])cc1 | -1.27%
18 | Cn1c(CSCc2ccc(Cl)c(Cl)c2)n[nH]c1=S | -16.6%
19 | CC(C)CNc1c(N)c(=O)oc2ccccc12 | -2.67%
20 | O=C(c1ccccc1)c1ccc(N2CCOCC2)c(F)c1 | -1.04%
21 | CCOC(=O)C1CCCN(c2c(NCCN3CCCCC3CC)c(=O)c2=O)C1 (centres unmarked) | 5.19%
22 | COc1cccc(C2c3[nH]c4ccccc4c3C[C@H]3C(=O)N(C4CC4)CC(=O)N23)c1 (some centres unmarked) | -13.1%
23 | COc1ccc(CCN2C(=O)CC(C(N)=O)SC2=Nc2ccc(F)cc2)cc1OC (centres unmarked) | -11.5%

Row | Compound | hERG current change (%, negative = inhibition) at 10uM
24 | CNC(=O)N(O)C1N(/N=C/c2cccs2)C(=S)SC1(C)C (centres unmarked) | 16.1%
25 | Oc1ccc(NCc2cccs2)cc1 | -1.71%
26 | Cn1c(=O)c2c(nc(N/N=C/c3cccnc3)n2Cc2ccc(F)cc2)n(C)c1=O | -16.8%
27 | COc1cccc(/C=N/Nc2nn3cnnc3c3ccccc23)c1 | -20.4%
28 | CCOC(=O)C1(S(=O)(=O)c2ccc(Cl)cc2)CCN(Cc2ccc(Cl)cc2)CC1 | 14.7%
29 | Cc1cnccc1CNC(=O)C1CCC(=O)N(Cc2ccc(Cl)cc2)C1 (centres unmarked) | -44.7%
30 | CCOc1ccc(C(C)=O)cc1N1C(=O)C2C(C1=O)C1C=CC2C12CC2 (centres unmarked) | 14.9%
31 | COc1cc(N(Cc2ccccc2)Cc2ccccc2)c2ncn(C(C)C)c2c1 | 6.37%
32 | CCOc1ncccc1C(=O)OC(C)C(=O)Nc1ccc(CC)cc1 (centres unmarked) | 27.9%
33 | Cc1csc(SCC(=O)Nc2cc(C(C)(C)C)nn2-c2ccccc2)n1 | -32.2%
34 | CC1CN(C(=S)NC(=O)c2ccc([N+](=O)[O-])cc2)CC(C)O1 (centres unmarked) | -1.58%
35 | CCC1CCCCN1CCCNC(=O)c1cn(CC)c2ccc(S(=O)(=O)N3CCc4ccccc4C3)cc2c1=O (centres unmarked) | -72%
36 | CCOC(=O)c1c(C)[nH]c(C(=O)OCc2ccccc2F)c1C | 22.6%
37 | CC(C)OC(=O)c1nnn(-c2nonc2N)c1CN1CCCCCC1 | -12%
38 | CCN(CC)S(=O)(=O)c1ccc(N=Nc2c(C)[nH]n(C(N)=S)c2=O)cc1 | -30.1%
39 | CC1CCc2cc(F)ccc2N1C(=O)c1cnc2sccn2c1=O (centres unmarked) | 18.5%
40 | Cc1cc(C)c(NC(=O)C2CCCN2C)c(C)c1 (centres unmarked) | 9.43%
41 | CC(C)CC(=O)Nc1ccc(-c2cn3ccsc3n2)cc1 | 13.8%
42 | Cc1c(C(=O)OC(C)C)sc2nc[nH]c(=O)c12 | 0.594%
43 | COc1ccc(N2CCN(C(CNC(=O)c3ccc4c(c3)OCO4)c3ccco3)CC2)cc1 (centres unmarked) | 8.39%
44 | Cc1ccc(OCC(=O)Nc2ccc(N(C)C)cc2)cc1 | 4.38%
45 | CCCN1Cc2cccc(C(=O)N3CCN(c4cc(Cl)ccc4C)CC3)c2C1=O | -52.5%
46 | CC(=O)C1=C(Nc2ccccc2)CC(C)(O)C(C(C)=O)C1c1ccccc1 (centres unmarked) | -5.43%

Row | Compound | hERG current change (%, negative = inhibition) at 10uM
47 | CN(CC(=O)Nc1ccccc1Br)C(=O)CCCSc1nc2ccccc2[nH]1 | -6.04%
48 | COc1cc(OC)cc(C(=O)NC(C)c2ccc(Br)cc2)c1 (centres unmarked) | -0.889%
49 | Cc1ccc2c(c1)c(N=Nc1cccc(C(=O)O)c1)c(O)n2C | -0.932%
50 | CCOC(=O)C1C(=O)CC(C)(O)C(C(=O)OCC)C1c1ccc(C)s1 (centres unmarked) | 2.99%
51 | O=C(/C=C/c1ccco1)N(c1ccccn1)c1ccccn1 | 9.53%
52 | CCCc1nc2ccc([N+](=O)[O-])cc2[nH]1 | 15.3%
53 | O=C(NCc1cccs1)C1CCCN(S(=O)(=O)c2ccc(Br)s2)C1 (centres unmarked) | 7.6%
54 | Cc1ccc2nc(NC(=O)C3CCCN3C(=O)OC(C)(C)C)sc2c1 (centres unmarked) | 1.31%
55 | CCCCN1CCC(O)(c2ccccc2)C(C(=O)c2ccccc2)C1 (centres unmarked) | -11.7%
56 | Nc1ccc(S(=O)(=O)[O-])cn1.[Na+] | 26.1%
57 | COc1ccc(Cc2nnc(SC(C)C(=O)Nc3ccc(C(N)=O)cc3)o2)cc1 (centres unmarked) | -11.9%
58 | COc1ccc(CN2CCC(Oc3cc(C(=O)NC4CC4)ccc3OC)CC2)c(O)c1 | -77.3%
59 | O=C(OCC(=O)N1CCN(c2ccccc2)CC1)C1=COCCO1 | 21.8%
60 | CCN(CC)C(=O)CSc1nc(O)c(Cc2ccccc2)c(=O)n1-c1ccc(C)cc1 | 20%
61 | CS(=O)(=O)c1cccc(NC(=O)CSc2nnc3n2CCCCC3)c1 | 10.3%
62 | COc1ccc(-c2cc(=O)oc3cc(OC(=O)C4CCCCC4)ccc23)cc1 | 7.87%
63 | Br.COc1cccc(Nc2nc(-c3cccc(N4C(=O)c5ccccc5C4=O)c3)cs2)c1 | 17.5%
64 | CCCNC(=O)COC(=O)c1[nH]c(C)c(C(=O)OCC)c1C | 7.57%
65 | CC(=O)Nc1nc(CCC(C)C)cc2c1c(=O)oc1ccccc12 | 2.54%
66 | COc1ccccc1Cn1nnc2c(=O)[nH]c(C3CCN(C(=O)c4ccc(C)cc4)CC3)nc21 | -18.4%
67 | CCOc1cc(CNCc2cc(OC)cc(OC)c2)ccc1OC.O=C(O)C(=O)O | -10.8%
68 | CCCNC(=O)OCCC12CC3CC(CC(C3)C1)C2 | 18%
69 | CN=c1scc(C)n1/N=C/c1ccc(O)cc1O | -1.8%

Row | Compound | hERG current change (%, negative = inhibition) at 10uM
70 | O=C(CSc1ncn[nH]1)N1CCOCC1 | 32.2%
71 | Cc1nn(C(C)(C)C)c(NC(=O)c2ccc(Cl)cc2Cl)c1Br | 7.67%
72 | Clc1cccc(CNc2nnnn2-c2ccccc2)c1 | 22.5%
73 | C=C(C)CSc1nc(N)c(C#N)c(-c2ccc(C)cc2)c1C#N | 1.76%
74 | CC1CCN(C(=O)CSc2nnc(CNC(=O)c3ccc(S(=O)(=O)N(C)C)cc3)o2)CC1 | 18.7%
75 | O=C(CSc1nnc(-c2ccc(Cl)s2)o1)N1CCc2ccccc21 | -13.7%
76 | Cn1c(Cn2c(=O)sc3ccccc32)nnc1SCC(=O)N1CCc2ccccc21 | -9.34%
77 | COc1ccc(C(=O)NNC(=O)C(=O)NC(C)c2ccccc2)cc1OC (centres unmarked) | 13.7%
78 | Cc1c(-c2ccccc2)c(P(=O)(N2CCOCC2)N2CCOCC2)c2ccccn12 | -21.6%
79 | O=C(NNC(=O)c1cc(-c2ccccc2)nc2ccccc12)Nc1cccc(Cl)c1 | 0.557%
80 | COc1ccc(CCNC(=O)C2CCCN(Cc3nc(-c4cccc(Cl)c4)oc3C)C2)cc1OC (centres unmarked) | -84.1%
81 | Cc1oc2c(c1C(=O)N1CCC(C)CC1)C(=O)c1ccccc1C2=O | -9.11%
82 | C[C@@H]1CCC(=O)N(CC[C@H](Oc2ccccc2)c2ccccc2)CC1 | -10.2%
83 | COc1ccc(/C=N/Nc2nc(-c3ccc(Cl)cc3)cc(C(F)(F)F)n2)c(OC)c1 | 2.62%
84 | COc1ccccc1-c1cc(C(=O)Nc2cc(C)on2)no1 | -2.52%
85 | CC(C)NC(=O)Cn1cc(C(=O)C2CC2)c2ccccc21 | 26.5%
86 | CC1CCN(C(=O)Cn2c3ccccc3c3nc4n(c(=O)c32)CCS4)CC1 | 6.31%
87 | O=C1CN(C(=O)COC(=O)c2ccccc2Br)c2ccccc2N1 | 0.233%
88 | CCOC(=O)c1ccc(N2C(=O)C(CC(N)=O)N(NC(=O)c3cccc(F)c3)C2=S)cc1 (centres unmarked) | 11.1%
89 | O=C(N/N=C/c1c(O)n(C2CC2)c(=S)[nH]c1=O)c1ccccc1Cl | 13%
